The record followed here is article PMC4242493.

The other results are listed elsewhere or left out. The list includes weakly bound sequences.

The target of this assay is MaxL homodimer (UniProt P61244). As to the kind of experiment: universal protein-binding microarray (PBM). The settings on record: PBS-based mixture, 10 nM His-tagged protein dimer, 2% milk, 200 ng/uL BSA, 50 ng/uL salmon testes DNA, 0.02% TX-100; detection with Alexa 488 anti-His …; high values mean tight binding; most listed sequences are background and not binding sites; double strand, one strand shown.
Chain of UniProt P61244 (P61244 whole entry): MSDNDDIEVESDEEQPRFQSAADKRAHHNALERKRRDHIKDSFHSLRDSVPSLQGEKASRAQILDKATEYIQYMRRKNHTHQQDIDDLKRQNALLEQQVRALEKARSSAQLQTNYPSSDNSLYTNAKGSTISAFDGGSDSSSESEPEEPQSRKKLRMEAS
On to CAGGCGAA, for which the binding signal (normalized occupancy) was found to be 0.0678. The value for ACGCTACT was 0.0732; that for AAGGAACG was 0.0758. With GAATGTAA the figure was 0.0758; with AGGCATGA, 0.091; with CTGAACGC, 0.0734. With AAACTCAG the figure was 0.0711. Regarding CTAAACAA, the binding signal (normalized occupancy) was 0.077. The value for ATTGGCCC was 0.0756; that for GTAGACGA was 0.0702. As to ACTCAGAC, the binding signal (normalized occupancy) was found to be 0.0699.

For the sequence AGGTTCCG, the binding signal (normalized occupancy) amounted to 0.0728. Turning to ACTACACG, the binding signal (normalized occupancy) worked out at 0.0897. Turning to ACCTAACA, the binding signal (normalized occupancy) stood at 0.0777. The value for GCAGAATA was 0.0753. Take ACTTGTGG: the binding signal (normalized occupancy) stood at 0.0777.

With TGATCACA, the binding signal (normalized occupancy) was 0.0795. The value for ACATTGGG was 0.085. With CACACTGA the figure was 0.0757; with AGGAACAC, 0.0726. CCTTCTTA: the binding signal (normalized occupancy) came out at 0.0756. The value for ACCGAGGT was 0.0689; that for CCAGGCAG was 0.0677.

With GCCTTGCA, the binding signal (normalized occupancy) stood at 0.0698. CAAGGCCG: the binding signal (normalized occupancy) stood at 0.0691. Regarding AAAGGACC, the binding signal (normalized occupancy) was 0.0678. Consider AGCGCACG, for which the binding signal (normalized occupancy) was 0.0877. The value for CAAAGCCC was 0.0672; that for AACAGTGT was 0.0763; that for ACCACCTC was 0.0834. On to AAAGAGAA, for which the binding signal (normalized occupancy) came out at 0.0711.

On to GGACATCC, for which the binding signal (normalized occupancy) worked out at 0.0769. With ACAATCGC the figure was 0.0791; with GTATTATA, 0.0781; with CTATGATA, 0.0805. As for GCCTCAAA, the binding signal (normalized occupancy) came to 0.0708. Turning to AGATAAGC, the binding signal (normalized occupancy) is 0.0766. Consider TACGACCA, for which the binding signal (normalized occupancy) was found to be 0.0794. With CTAGGTCA the figure was 0.0724. With CCTAGTTC the figure was 0.0691; with AGTTTACA, 0.0773; with ATTTTGCG, 0.0728.

For CTGATCAA, the binding signal (normalized occupancy) worked out at 0.0813. ACATCAGA: the binding signal (normalized occupancy) is 0.0759. With ACGCTCCT the figure was 0.0753; with CCGTTCCA, 0.0724; with AGGGTTTG, 0.0716. The value for ACCTTAAG was 0.0714; that for CCCTCGAG was 0.0761. The value for CAGCCAGC was 0.0754; that for CATTGTCC was 0.076. Consider GCTCCTTA, for which the binding signal (normalized occupancy) was 0.0685. Consider CGCGTAAG, for which the binding signal (normalized occupancy) amounted to 0.0752. The value for CAAGTGGC was 0.0744.

Consider CTCGAATA, for which the binding signal (normalized occupancy) stood at 0.0727. For GGGGTGTA, the binding signal (normalized occupancy) is 0.0905. With CGTAGGCC the figure was 0.0746; with GATCTCAC, 0.0769; with AGTACCGG, 0.0705. The value for CATGCGCC was 0.111; that for TGGGGTAA was 0.0814; that for ATGAGCGA was 0.0715. With ATCATCTC the figure was 0.076; with CTATGTGA, 0.0827. In the case of AAAATCGG, the binding signal (normalized occupancy) was determined as 0.0732. The value for CCGCCGTA was 0.0682; that for AGGTGTTC was 0.0811; that for CAAGACAC was 0.0739. The value for GTGCAAAC was 0.0754; that for CGTGGGAG was 0.0916. The value for TATGCCGA was 0.0757; that for CCTATACG was 0.0802; that for CGTTATCC was 0.0912. As for CATGAGTA, the binding signal (normalized occupancy) is 0.0969. As for CGAATTCC, the binding signal (normalized occupancy) turned out to be 0.0757. The value for ATTCCCAA was 0.0722. With ATGGTGAA the figure was 0.0803; with GAGAGGCC, 0.0664; with CGGAGGAC, 0.0712.

AGGGGCAA: the binding signal (normalized occupancy) stood at 0.0757. The value for GTCTGCTA was 0.0705; that for CAGCGCAA was 0.0707. For AAGTCTGA, the binding signal (normalized occupancy) came to 0.0731.

As to AATTAACG, the binding signal (normalized occupancy) was determined as 0.0697. With AGATGGGG the figure was 0.0806.

GAGCACAA: the binding signal (normalized occupancy) stood at 0.0775. With GCTAACAC the figure was 0.0758; with GACCTCCC, 0.0734. As for CAGCGGTC, the binding signal (normalized occupancy) is 0.0711.

With ATATTTAA, the binding signal (normalized occupancy) is 0.0836. On to GAAACGCC, for which the binding signal (normalized occupancy) stood at 0.0758. With AGTTTCAA the figure was 0.0702; with AAAAAACA, 0.0761. The value for AAAGATGT was 0.0764; that for AACCTATG was 0.0754. The value for CCGGACAA was 0.0738. For the sequence CCATAGGC, the binding signal (normalized occupancy) was 0.0737. For the sequence GTATGAAA, the binding signal (normalized occupancy) turned out to be 0.0778. On to CACCATTA, for which the binding signal (normalized occupancy) worked out at 0.0833.

Turning to AATAGGCG, the binding signal (normalized occupancy) worked out at 0.0782.

On to AGCGATTC, for which the binding signal (normalized occupancy) stood at 0.0746. Regarding AAGTTCGC, the binding signal (normalized occupancy) was determined as 0.0678. Regarding GCAAGTGA, the binding signal (normalized occupancy) turned out to be 0.0726. Consider CTGTTCCC, for which the binding signal (normalized occupancy) stood at 0.0723.

As to ACTGAGGG, the binding signal (normalized occupancy) was 0.0682.

Take CTAAACTA: the binding signal (normalized occupancy) turned out to be 0.0783. Take CTAGACAC: the binding signal (normalized occupancy) stood at 0.0766. For the sequence AGGGTGAG, the binding signal (normalized occupancy) is 0.0746. With CATCGACA the figure was 0.0766.
